Measurements reported in PubChem BioAssay (NCATS).
Values joined by “and” are separate entries in the source; they are usually repeats but may differ in a detail not shown here. Identical values can stand only once. Inconclusive results, whose numbers are uncertain, are shown with a selection of clear calls. Potencies of inconclusive entries are doubtful fits and often do not repeat. Active and inactive are the calls of the source. Calls come from the whole dose curve; as a rule, active = well fitted cell-killing curve with a large enough effect; inconclusive = small, poorly fitted or top-dose-only effect, or effect the other way; inactive = no such curve, though single readings can be large or run the other way.

Assays:
[1] = Viability qHTS for spleen associated tyrosine kinase inhibitor (SYKi) naive MV4-11 cells (AID 1963823); settings: MV4-11 AML viability, CellTiter-Glo luminescence, 72 h; series mostly up to 45 µM; note: nearly all actives have a fitted effect of over 40% in size
Procedure, shortened: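 CellTiter-Glo luminescence, 10 min room-temperature incubation, gave viability. Cells: naive MV4-11 (500/well), treated 72 hr at 37 C, 5% CO2.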

[2] = Viability qHTS for spleen associated tyrosine kinase inhibitor (SYKi) drug resistant MV4-11 cells (AID 1963824); note: nearly all actives have a fitted effect of over 35% in size
Procedure, shortened: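 CellTiter-Glo luminescence, read 10 min after reagent addition, reports viability after a 72 hr compound exposure. Cells are an MV4-11 line made resistant to SYK inhibition, seeded at 500 per well onto compound-containing plates.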
Potency is the fitted concentration of half-maximal effect; tags give direction and shape of the fitted curve.

Row | SMILES | Potency [1] | Potency [2]
1 | C#CCCCn1cc(-c2cccc3c2N[C@H](C)CC(=O)N3)cn1 | inconclusive: 16.4 µM [cytotoxic, single point] | inconclusive: 20.6 µM [cytotoxic, partial curve]
2 | O=C(/C=C/c1ccc(O)c(O)c1)OCc1ccccc1O[C@@H]1O[C@H](CO)[C@@H](O)[C@H](O)[C@H]1O | inactive | inactive
3 | O=C(N/N=C/c1ccc(O)c(O)c1)c1cc2ccccc2cc1O | inconclusive: 7.69 µM [cytotoxic, single point] | inconclusive: 5.44 µM [cytotoxic, partial curve, poor fit]
4 | O=C(O)c1cccc(CN2C(=O)/C(=C(\c3ccccc3)c3ccc(Cl)cc3)c3ccccc32)c1 | inconclusive: 23.1 µM [cytotoxic, single point] | active: 20.6 µM
5 | O=C(OC1C=C(CO)C2C(OC3OC(CO)C(O)C(O)C3O)OC=CC12O)c1ccc(O)cc1 (configuration not stated) | inactive | inactive
6 | O=C(OCC1=C[C@@H](O)[C@@H]2C=CO[C@@H](O[C@@H]3O[C@H](CO)[C@@H](O)[C@H](O)[C@H]3O)[C@H]12)c1ccc(O)cc1 | inactive | inactive
7 | Cn1sc(=O)n(Cc2ccccc2)c1=O | inconclusive: 6.51 µM [cytotoxic, full curve, poor fit] and active: 2.59 µM | inconclusive: 11.6 µM [cytotoxic, partial curve, poor fit]
8 | C=C[C@@]1(C)CCC2=C([C@H]1OC(C)=O)[C@H](OC(C)=O)CC1[C@](C)(C(=O)OC)CC[C@H](OC(C)=O)[C@]21C (some centres not stated) | inconclusive: 3.17 µM [cytotoxic, single point] | inactive
9 | C/C(=C/CO)CC[C@@H]1[C@@](C)(O)CCC2C(C)(C)CCC[C@]21C (some centres not stated) | inconclusive: 14.3 µM [cytotoxic, single point] | inconclusive: 14.3 µM [cytotoxic, partial curve]
10 | C[C@]12C=CC(=O)C=C1CC[C@@H]1[C@@H]2[C@@H](O)C[C@@]2(C)[C@H]1CC[C@]2(O)C(=O)CO | inconclusive: 0.0299 µM [rising, full curve, poor fit] | inactive and inconclusive: 1.05 µM [cytotoxic, single point]
11 | CC(=O)O[C@@H]1[C@@H](O)[C@H](O[C@@H]2[C@@H](O)[C@@H](O)[C@H](O[C@H]3[C@H](O[C@H]4[C@H](O[C@H]5CC[C@@]6(C)C(CC[C@]7(C)C6CC=C6[C@@H]8CC(C)(C)CC[C@]8(C(=O)O)CC[C@]67C)[C@]5(C)CO)O[C@H](CO)[C@@H](O)[C@@H]4O)OC[C@@H](O)[C@@H]3O)O[C@H]2C)OC[C@H]1O (some centres not stated) | inconclusive: 6.93 µM [cytotoxic, single point] | active: 3.9 µM
12 | COC1=CC(=O)O[C@@H](/C=C/c2ccccc2)[C@@H]1O | inactive | inactive
13 | NC(=O)c1csc(C2OC(CO)C(O)C2O)n1 (configuration not stated) | inconclusive: 20.6 µM [cytotoxic, partial curve] | active: 8.2 µM
14 | CC(Oc1c(Cl)cccc1Cl)C1=NCCN1 (configuration not stated) | inconclusive: 0.0021 µM [rising, full curve] | inconclusive: 9.44 µM [cytotoxic, partial curve, poor fit]
15 | CC1CCC2(C(=O)OC3OC(CO)C(O)C(O)C3O)CCC3(C(=O)O)C(=CCC4C5(C)CCC(OC6OC(C)C(O)C(O)C6O)C(C)(C)C5CCC43C)C2C1C (configuration not stated) | inactive | inactive
16 | CCCN(CCC)CCc1cccc2c1CC(=O)N2 | inconclusive: 11.9 µM [cytotoxic, partial curve, poor fit] | inactive
17 | Cc1cc(N=Nc2ccc(S(=O)(=O)Nc3ccccn3)cc2)c(N)cc1O | inconclusive: 2.91 µM [cytotoxic, full curve] | active: 2.59 µM
18 | O=C1CCCC2=C1C1(CCSCC1)N=C(Nc1nc3ccccc3o1)N2 | inconclusive: 6.51 µM [cytotoxic, partial curve] | inconclusive: 4.61 µM [cytotoxic, partial curve, poor fit]
19 | CC(=O)O[C@H]1CC[C@]2(C)[C@H]3CC[C@]4(C)Oc5oc(C)cc(=O)c5C[C@H]4[C@]3(C)CC[C@H]2C1(C)C | inconclusive: 7.09 µM [cytotoxic, partial curve, poor fit] | inconclusive: 8.93 µM [cytotoxic, partial curve]
20 | CCC(=O)O[C@]1(C(=O)COC)[C@@H](C)C[C@H]2[C@@H]3CCC4=CC(=O)C=C[C@]4(C)C3(F)[C@@H](O)C[C@@]21C (some centres not stated) | inconclusive: 0.0009 µM | inconclusive: 13.3 µM [cytotoxic, partial curve, poor fit]
21 | CNC(C)C(=O)NC(C(=O)N1CCCC1c1nc(C(=O)c2ccc(F)cc2)cs1)C1CCCCC1 (configuration not stated) | inconclusive: 20.6 µM [cytotoxic, partial curve, poor fit] | active: 2.59 µM

Row | SMILES | Potency [1] | Potency [2]
22 | C=C1[C@@H](OC(C)=O)CC[C@@]2(C)[C@@H](OC(C)=O)[C@H](OC(C)=O)C3=C(C)C[C@H](OC(=O)C(C)CC)[C@@H]([C@@H](OC(C)=O)[C@H]12)C3(C)C (some centres not stated) | active: 1.53 µM | active: 1.22 µM
23 | NC(=O)C(O[C@@H]1O[C@H](CO[C@@H]2O[C@H](CO)[C@@H](O)[C@H](O)[C@H]2O)[C@@H](O)[C@H](O)[C@H]1O)c1ccccc1 (some centres not stated) | inactive | inactive
24 | COc1ccc(C2(O)c3ccccc3NC(=O)C2OC)cc1 (configuration not stated) | inconclusive: 0.58 µM [cytotoxic, partial curve] | inconclusive: 13 µM [cytotoxic, partial curve, poor fit]
25 | COc1ccc(C(=O)N2CCN(C(=O)/C=C/c3ccc(Br)cc3)CC2)cc1 | inconclusive: 18.6 µM [cytotoxic, partial curve] | inconclusive: 20.9 µM [cytotoxic, partial curve]
26 | Nc1[nH]nc2nc3ccccc3nc12 | inconclusive: 29.1 µM [cytotoxic, single point] | inconclusive: 6.51 µM [cytotoxic, partial curve, poor fit]
27 | CCN1CCN(C(=O)N[C@@H](C(=O)N[C@@H]2C(=O)N3[C@@H]2SC(C)(C)[C@H]3C(=O)O)c2ccccc2)C(=O)C1=O | inactive | inactive
28 | CC(NC(=O)[C@H](Cc1ccccc1)NC(=O)OCc1ccccc1)C(=O)CF (some centres not stated) | inactive | inconclusive: 13 µM [cytotoxic, partial curve, poor fit]
29 | COc1ccc2c(c1)c(CC(=O)OC/C=C(\C)CC/C=C(\C)CCC=C(C)C)c(C)n2C(=O)c1ccc(Cl)cc1 | inconclusive: 33.5 µM [cytotoxic, partial curve, poor fit] | inconclusive: 16.8 µM [cytotoxic, single point]
30 | COC(=O)C(CC1(OC(=O)C(C)C)c2ccccc2N2C(=O)C(C)(C)N(O)C21)n1cnc2ccccc2c1=O (configuration not stated) | inconclusive: 14.2 µM [cytotoxic, single point] | inconclusive: 8.93 µM [cytotoxic, partial curve]
31 | COc1cccc2c1c(O)c(C(=O)N(C)c1ccc(C(F)(F)F)cc1)c(=O)n2C | inactive | inconclusive: 7.31 µM [cytotoxic, partial curve, poor fit] and inconclusive: 23.5 µM [cytotoxic, partial curve, poor fit]
32 | OC[C@H]1O[C@@H](OC(CCCCc2ccc(O)cc2)CCc2ccc(O)cc2)[C@H](O)[C@@H](O)[C@@H]1O (some centres not stated) | inactive | inactive
33 | COc1ccc(CNC(=O)c2cc(-c3cncc(C)c3)ncc2-c2nccs2)nc1OC | inactive | inactive
34 | N#CC(c1ccnc(OCc2ccc(CN3CCOCC3)cc2)n1)c1nc2ccccc2s1 (configuration not stated) | inconclusive: 4.11 µM [cytotoxic, full curve] | inconclusive: 2.91 µM [cytotoxic, full curve]
35 | CC1(CO)CCCC2(C)C1C(OC(=O)c1ccccc1)C=C1C(=O)OCC12O (configuration not stated) | active: 1.8 µM | active: 1.61 µM
36 | O=S(=O)(O)NC1CCCCC1 | inactive | inactive
37 | CN=C(N)NCCCCC/C=C(/C)CC(C)C1OC(=O)C(C)C(O)/C=C/C(C)C(O)CC(O)C(C)C(O)CCC(C)C(O)CC2(O)OC(CC(OC(=O)CC(=O)O)CC(O)CC(O)C(C)C(O)/C(C)=C/CCC1C)CC(O)C2O (configuration not stated) | inconclusive: 3.48 µM [cytotoxic, single point] | inconclusive: 2.76 µM [cytotoxic, partial curve, poor fit]
38 | CCN1CCN(C(=O)N[C@@H](C(=O)N[C@@H]2C(=O)N3[C@@H]2SC(C)(C)[C@@H]3C(=O)O)c2ccccc2)C(=O)C1=O | inactive | inactive
39 | CC1(C=O)CCCC2(C)C1CCC13CC(CO)C(CCC12)C3 (configuration not stated) | inconclusive: 14.6 µM [cytotoxic, partial curve] | inconclusive: 16.4 µM [cytotoxic, partial curve]
40 | COc1c(N2C[C@@H]3CCCN[C@@H]3C2)c(F)cc2c(=O)c(C(=O)O)cn(C3CC3)c12 | inconclusive: 21.1 µM [cytotoxic, partial curve, poor fit] | inconclusive: 26.6 µM [cytotoxic, partial curve, poor fit]
41 | CCC(C(=O)OCCN1CCOC(c2ccccc2)C1C)c1ccccc1 (configuration not stated) | inconclusive: 21.1 µM [cytotoxic, partial curve, poor fit] | inconclusive: 16.8 µM [cytotoxic, single point]
